Test results from PMC4336329 (PLoS ONE, 2015).
Out of some 310,000 compounds screened, about 2,200 (0.71%) showed an effect of 50% or more. The effect is printed as a negative number. This is one part of the list.

target: human ether-à-go-go-related gene (hERG) potassium channel (human, UniProt Q12809); experiment: primary screen, population patch clamp on CHO cells stably expressing hERG
Sequence (Q12809 whole entry, looked up): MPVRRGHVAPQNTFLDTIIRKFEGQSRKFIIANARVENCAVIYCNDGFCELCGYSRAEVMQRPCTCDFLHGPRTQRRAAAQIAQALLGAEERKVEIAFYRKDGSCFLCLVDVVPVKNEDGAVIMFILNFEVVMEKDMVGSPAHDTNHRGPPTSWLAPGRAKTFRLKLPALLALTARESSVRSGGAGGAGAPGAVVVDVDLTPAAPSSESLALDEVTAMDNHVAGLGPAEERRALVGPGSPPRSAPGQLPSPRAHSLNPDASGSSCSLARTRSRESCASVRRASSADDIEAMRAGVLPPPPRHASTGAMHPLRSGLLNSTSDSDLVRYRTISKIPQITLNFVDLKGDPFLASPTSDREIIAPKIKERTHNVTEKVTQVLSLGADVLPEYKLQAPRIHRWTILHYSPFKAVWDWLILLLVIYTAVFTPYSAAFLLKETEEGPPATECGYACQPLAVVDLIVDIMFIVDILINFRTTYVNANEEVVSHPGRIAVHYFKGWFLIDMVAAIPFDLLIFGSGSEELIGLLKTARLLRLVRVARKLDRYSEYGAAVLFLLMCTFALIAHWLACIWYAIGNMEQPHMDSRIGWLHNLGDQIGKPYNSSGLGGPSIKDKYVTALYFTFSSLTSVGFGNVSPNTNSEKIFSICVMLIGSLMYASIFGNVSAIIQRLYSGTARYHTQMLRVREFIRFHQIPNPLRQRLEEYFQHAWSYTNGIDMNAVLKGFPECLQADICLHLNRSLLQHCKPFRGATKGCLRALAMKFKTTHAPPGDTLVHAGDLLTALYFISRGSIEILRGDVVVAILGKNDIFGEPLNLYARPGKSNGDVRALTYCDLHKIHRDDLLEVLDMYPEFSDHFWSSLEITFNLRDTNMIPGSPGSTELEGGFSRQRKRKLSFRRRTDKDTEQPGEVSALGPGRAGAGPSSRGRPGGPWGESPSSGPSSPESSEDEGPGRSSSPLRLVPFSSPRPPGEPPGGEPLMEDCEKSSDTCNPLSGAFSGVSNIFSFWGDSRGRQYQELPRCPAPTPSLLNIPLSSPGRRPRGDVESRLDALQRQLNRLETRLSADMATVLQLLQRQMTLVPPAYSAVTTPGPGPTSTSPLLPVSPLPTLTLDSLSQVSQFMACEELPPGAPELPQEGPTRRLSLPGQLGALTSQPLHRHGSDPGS

Row | SMILES | hERG current change (%, negative = inhibition) at 1uM [%]
1 | COc1ccc2c(c1OC)C(=O)OC2Nc1ccccc1S(=O)(=O)C(F)F (stereo not drawn) | 17.3
2 | CCN1CCN(CCOc2ccccc2-c2ccccc2)CC1.O=C(O)C(=O)O | -5.08
3 | CN(Cc1nc2ccc(F)cc2[nH]1)Cc1c(C(=O)N(C)C)nc2ccc(Cl)cn12 | -16.4
4 | Cc1ccc(/C=N/NC(=O)c2ccccc2OCc2cccc(Br)c2)o1 | 3.98
5 | COc1cc(NC(=S)NC(=O)c2ccco2)ccc1NC(=O)C(C)C | 7.92
6 | NS(=O)(=O)c1ccc2c(c1)C(=NO)c1cc(S(N)(=O)=O)ccc1-2 | 10.1
7 | CC(OC(=O)CC1CC2CCC1C2)C(=O)Nc1cccc(S(=O)(=O)N2CCOCC2)c1 (stereo not drawn) | 13.7
8 | CCC1CCCCN1CCCNC(=O)Cn1c(=O)c2cccn2c2ccccc21 (stereo not drawn) | 9.41
9 | Cc1ccc(C(=O)OCC(=O)NC2CCCC2)cc1C | 9.71
10 | Cn1c(SCc2cccc(Cl)c2)nc(C(F)(F)F)cc1=O | 18.4
11 | C/C(=N\NC(=O)c1cc(C)oc1C)c1ccc2c(c1)OCO2 | 2.82
12 | C/C(CC(=O)Nc1cccc2c1CCCC2)=N\NC(=O)c1ccccc1N | 3.55
13 | CCOC(=O)c1c(C)[nH]c(C(=O)OCC(=O)NCc2ccc(F)cc2)c1C | 7.37
14 | c1ccc(-n2c(-c3ccco3)nnc2N2CCOCC2)cc1 | 15.2
15 | COc1ccc(S(=O)(=O)N2CCCCC2)cc1NC(=O)c1cc([N+](=O)[O-])ccc1N1CCOCC1 | 1.19
16 | CCc1csc(CCNC(=O)C2CCC(=O)N(CCc3cccc(F)c3)C2)n1 (stereo not drawn) | 5.04
17 | Cc1ccc(NC2=CC(=O)CC(c3ccc(Cl)cc3)C2)cc1 (stereo not drawn) | 7.86
18 | Cc1cccc(NC(=O)Cn2c(=O)n3nc(CCn4nc(C)cc4C)nc3c3ccccc32)c1 | -18.7
19 | O=C(Cc1cccs1)N/N=C/C=C/c1ccccc1[N+](=O)[O-] | 9.51
20 | Cc1ccc(S(=O)(=O)N2CCOCC2)cc1NC(=O)COC(=O)C1=COCCO1 | 19.7
21 | CCC1(c2ccccc2)NC(=O)N(CC(=O)NCc2ccc(C)cc2)C1=O (stereo not drawn) | 14.4
22 | COCCNc1ncnc2c1nc1n2CCCC1 | 10.4
23 | CN(Cc1ccco1)C(=O)Cn1cc(S(=O)(=O)N2CCCC2)c(S(=O)(=O)N2CCCC2)c1 | 10.8
24 | O=c1c2c(nc3cc(-c4ccc(Cl)cc4)[nH]n13)CCS2 | -0.631
